Laboratory results as given in US20250352527A1, “METHODS FOR TREATING VIRAL INFECTIONS, ORGAN INJURY, AND RELATED CONDITIONS” (Akebia Therapeutics, Inc., priority 2021, published 2025).

Assays:
Format in all cases: in vivo
[1] = system: LPS-induced pulmonary inflammation in male Swiss Webster mice; assay: Absolute total nucleated cells in lung lavage (BAL), LPS-induced lung inflammation model; conditions: vs vehicle disease control
Experimental: (§1) All animals survived to study termination.
(§2) After euthanasia, a 20 G blunt-tipped needle was inserted into the trachea, and the lungs were washed 3 times with 0.8 mL of sterile saline. The samples were pooled into a 15-mL flip-top conical tube and kept on ice. The BAL was spun at 400 g for 5 minutes at 4° C., and supernatant was aspirated and aliquoted (≥100 L/mouse for Luminex, ≥100 μL/mouse for protein assay, and remainder). The cell pellet was resuspended in 1 mL sterile saline and counted via Luna-FL™. Absolute cell counts are included in Table 3. After the cell count, 100 μL of the cell suspension was spun down in a Cytospin® collection funnel with an attached slide. The slides were fixed followed by staining with a Diff-Quick stain. The cell differentiation counts were quantified under a light microscope.

[2] = system: LPS-induced pulmonary inflammation in male Swiss Webster mice; assay: Lung lavage (BAL) cell differentials in LPS-induced lung inflammation model; conditions: vs vehicle disease control; for macrophages per milliliter in BAL fluids / neutrophils per milliliter in BAL fluids / reduction in absolute macrophage concentration (cells/mL) in BAL / reduction in absolute neutrophil concentration (cells/mL) in BAL: 24 hours post-LPS; for reduction in absolute macrophage concentration (cells/mL) in BAL / reduction in absolute neutrophil concentration (cells/mL) in BAL: 4 doses
Experimental: as §1, §2
A total of 100 cells (or the total number if less than 100) was counted, and the total percentage of each cell type and the number of cells per milliliter of BAL fluid were calculated.

[3] = system: LPS-induced pulmonary inflammation in male Swiss Webster mice; assay: LPS-induced lung inflammation model, overall effect on disease parameters; conditions: daily oral treatment, 100 or 300 mg/kg
Excerpt: as §1
Body weight measurements were collected and the animals were euthanized for necropsy and terminal sample collection on day 0 or day 1.

[4] = system: LPS-induced pulmonary inflammation in male Swiss Webster mice; assay: Lung histopathology in LPS-induced lung inflammation model; conditions: for lung histopathology: 8 hours post-LPS
Experimental: as §1
Following lavage, whole lungs were infused with approximately 0.8 mL of neutral buffered formalin (NBF) via the trachea then excised and placed in 10% NBF at room temperature for histology.
Lungs are collected into formalin, routinely processed, sectioned longitudinally for maximum area visualization, and stained with hematoxylin and eosin (H & E). The entire section of lung is evaluated by light microscopy by a board-certified pathologist.
Peribronchiolar/perivascular Lymphoid Inflammation (BALT): The widths of lymphoid cell infiltrates of five of the most severely-affected areas are measured, and a mean is determined.
Interstitial Inflammation Score: The approximate percentage of lung affected by inflammation is evaluated and scored as follows: • 0=None • 0.5=Very minimal, ≤5% • 1=Minimal, 6-10% • 2=Mild, 11-25% • 3=Moderate, 26-50% • 4=Marked, 51-75% • 5=Severe, >75%
Neutrophil Percent and Neutrophil Score: Inflammatory cell infiltrates are evaluated for approximate percent of neutrophils in the total infiltrate, rounded to 0, 10, 25, 50, or 75 percent. This value is then multiplied by the inflammation score to determine the neutrophil score.
Peribronchiolar/perivascular Edema Score: Peribronchiolar/perivascular widening by edema of five of the most severely-affected areas are measured, and a mean is determined. A score is assigned based on that mean as follows: • 0=None • 0.5=Very minimal, ≤25 microns • 1=Minimal, 26-50 microns • 2=Mild, 51-75 microns • 3=Moderate, 76-100 microns • 4=Marked, 101-150 microns • 5=Severe, >150 microns
Airway Epithelial Damage Score: Lungs are scored for the degree of airway epithelial damage, according to the worst lesion present, as follows: • 0=None; normal intact airway epithelium • 1=Elongation and distortion of the cuboidal/columnar epithelial cells lining the airways • 2=Elongation associated with in folding of the epithelium and narrowing of the airway lumen • 3=Loss of epithelial cells resulting in broken airways
Histopathology Sum: A sum of all the above scores is calculated.

[5] = 100 mg/kg PO QD days -2 to 0 (final dose 1 h pre-LPS), 6 hours post-LPS
[6] = 100 mg/kg PO single dose 1 h post-LPS, 8 hours post-LPS
[7] = 100 mg/kg PO QD days -2 to 0 (final dose 7 h post-LPS)
[8] = 300 mg/kg PO QD days -2 to 0 (final dose 7 h post-LPS)
[9] = 100 mg/kg PO QD, 6 hours post-LPS, vs 6-hour vehicle disease control
[10] = 100 mg/kg PO QD, 6 hours post-LPS, vs vehicle disease control
[11] = 300 mg/kg PO QD, 6 hours post-LPS, vs 6-hour vehicle disease control
[12] = 300 mg/kg PO QD, 6 hours post-LPS, vs vehicle disease control
[13] = 300 mg/kg PO QD, 24 hours post-LPS, vs 24-hour vehicle disease control
[14] = 300 mg/kg PO QD, 24 hours post-LPS, vs vehicle disease control
[15] = 3 mg/kg PO 1x 1 h pre-LPS, 6 hours post-LPS
[16] = 3 mg/kg PO 1x 1 h pre-LPS, 6 hours post-LPS, vs 6-hour vehicle disease control

O=C(O)CNC(=O)c1ncc(-c2cccc(Cl)c2)cc1O [Compound 1, {[5-(3-chlorophenyl)-3-hydroxypyridine-2-carbonyl]amino}acetic acid]
total nucleated cell counts in BAL fluids [1, 5]: did not differ statistically | reduction in total nucleated cell counts in BAL ([1]; 100 mg/kg PO QD, 4 doses, 24 hours post-LPS): 47% | total nucleated cell counts in BAL fluids [1, 6]: no significant differences | reduction in total nucleated cell counts in BAL ([1]; 300 mg/kg PO QD, 4 doses, 24 hours post-LPS): 63% | total nucleated cell counts in BAL fluids ([1]; 300 mg/kg PO single dose 1 h post-LPS, 8 hours post-LPS): no significant differences | cell differentials in BAL fluids [2, 5]: did not differ statistically | macrophages per milliliter in BAL fluids [2, 7]: significantly reduced | neutrophils per milliliter in BAL fluids [2, 7]: significantly reduced | reduction in absolute macrophage concentration (cells/mL) in BAL ([2]; 100 mg/kg PO QD): 47% | reduction in absolute neutrophil concentration (cells/mL) in BAL ([2]; 100 mg/kg PO QD): 47% | relative lymphocyte counts in BAL fluids [2, 6]: significant increases | macrophages per milliliter in BAL fluids [2, 8]: significantly reduced | neutrophils per milliliter in BAL fluids [2, 8]: significantly reduced | reduction in absolute macrophage concentration (cells/mL) in BAL ([2]; 300 mg/kg PO QD): 65% | reduction in absolute neutrophil concentration (cells/mL) in BAL ([2]; 300 mg/kg PO QD): 63% | effect on LPS-induced lung inflammation [3]: beneficial effects | reduction in interstitial inflammation score [4, 9]: 27% | reduction in neutrophil score [4, 9]: 27% | reduction in summed lung scores [4, 9]: 27% | interstitial inflammation score [4, 10]: Significantly reduced | neutrophil score (lung histopathology) [4, 10]: Significantly reduced | summed lung scores [4, 10]: Significantly reduced | lung histopathology ([4]; 100 mg/kg PO single dose 1 h post-LPS, vs vehicle disease control): no significant differences | reduction in interstitial inflammation score [4, 11]: 27% | reduction in neutrophil score [4, 11]: 27% | reduction in summed lung scores [4, 11]: 27% | interstitial inflammation score [4, 12]: Significantly reduced | neutrophil score (lung histopathology) [4, 12]: Significantly reduced | summed lung scores [4, 12]: Significantly reduced | reduction in interstitial inflammation score [4, 13]: 31% | reduction in neutrophil score [4, 13]: 31% | reduction in summed lung scores [4, 13]: 33% | interstitial inflammation score [4, 14]: Significantly reduced | neutrophil score (lung histopathology) [4, 14]: Significantly reduced | summed lung scores [4, 14]: Significantly reduced | lung histopathology ([4]; 300 mg/kg PO single dose 1 h post-LPS, vs vehicle disease control): no significant differences | lung histopathology scores ([4]; daily oral treatment, 100 or 300 mg/kg, 6 and 24 hours post-LPS, vs disease controls): significant improvements | peribronchiolar lymphoid inflammation widths ([4]; dose not stated (100 or 300 mg/kg groups, PO QD), 24 hours post-LPS, vs vehicle disease control): Slight decrease in peribronchiolar lymphoid inflammation widths at 24 hours post-LPS for mice treated with Compound 1 as compared to vehicle disease control mice, although statistically insignificant

C[C@@H]1C[C@H]2[C@@H]3CCC4=CC(=O)C=C[C@]4(C)[C@@]3(F)[C@@H](O)C[C@]2(C)[C@@]1(O)C(=O)CO [dexamethasone, reference compound]
reduction in total nucleated cell counts in BAL [1, 15]: 63% | reduction in viable cells in BAL [1, 15]: 24% | reduction in interstitial inflammation score [4, 16]: 79% | reduction in neutrophil score [4, 16]: 79% | reduction in summed lung scores [4, 16]: 79%
